Results are given in words; binding and its absence hold for the method and conditions named. Binding seen in cells or lysates may run through a third protein. Some entries that bind do so weakly or less than the wild type. Where a sequence is shown, tags or fusion partners need not be part of it.

Chains of the proteins cited; added tags and fusions are not shown.
UniProt Q96ST8: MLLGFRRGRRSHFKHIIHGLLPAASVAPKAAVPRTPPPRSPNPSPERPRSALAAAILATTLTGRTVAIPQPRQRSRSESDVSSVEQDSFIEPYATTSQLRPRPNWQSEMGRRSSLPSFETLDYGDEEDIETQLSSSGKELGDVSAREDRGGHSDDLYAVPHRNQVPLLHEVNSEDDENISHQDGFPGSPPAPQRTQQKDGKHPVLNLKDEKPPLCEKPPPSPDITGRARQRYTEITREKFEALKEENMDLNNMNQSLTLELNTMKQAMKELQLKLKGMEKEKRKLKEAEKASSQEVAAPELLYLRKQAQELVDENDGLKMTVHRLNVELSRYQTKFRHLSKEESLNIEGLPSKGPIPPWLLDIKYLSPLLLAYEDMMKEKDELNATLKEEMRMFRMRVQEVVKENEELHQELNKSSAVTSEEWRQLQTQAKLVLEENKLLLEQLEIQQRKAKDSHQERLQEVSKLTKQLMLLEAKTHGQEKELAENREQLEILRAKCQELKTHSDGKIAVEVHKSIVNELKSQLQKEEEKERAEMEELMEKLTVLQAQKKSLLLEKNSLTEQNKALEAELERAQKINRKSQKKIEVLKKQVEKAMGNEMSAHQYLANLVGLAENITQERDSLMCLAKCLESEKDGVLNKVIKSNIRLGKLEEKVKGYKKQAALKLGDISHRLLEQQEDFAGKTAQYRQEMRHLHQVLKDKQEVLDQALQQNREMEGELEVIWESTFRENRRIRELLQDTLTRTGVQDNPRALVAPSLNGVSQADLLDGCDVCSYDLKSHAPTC
UniProt Q9HBI5: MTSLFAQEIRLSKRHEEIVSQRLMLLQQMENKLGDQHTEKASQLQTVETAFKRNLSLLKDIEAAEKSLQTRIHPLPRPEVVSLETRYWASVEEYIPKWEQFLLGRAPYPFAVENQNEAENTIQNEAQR

Test [1] concerns the target N-terminally HA-tagged CEP89 (human) (UniProt Q96ST8). Description: pull-down; in vitro binding assay by the original protocol: HA-tagged and MYC-tagged proteins translated in separate reactions, not co-translated; captured by HA-agarose beads.
Test [2] has the same target. Description: pull-down; in vitro binding assay: HA-tagged and MYC-tagged proteins co-translated in reticulocyte lysate, captured by HA-agarose beads; 25 mM HEPES-NaOH pH 7.5, 500 mM NaCl, 1 mM CaCl2, 0.1% Triton X-100; 2 hr at 4°C; immunoblot. For orientation: A western blot detects proteins with antibodies after separation by electrophoresis.
Test [3] has as its target T1, N-terminally HA-tagged FGFR1OP (UniProt O95684).
T1 sequence: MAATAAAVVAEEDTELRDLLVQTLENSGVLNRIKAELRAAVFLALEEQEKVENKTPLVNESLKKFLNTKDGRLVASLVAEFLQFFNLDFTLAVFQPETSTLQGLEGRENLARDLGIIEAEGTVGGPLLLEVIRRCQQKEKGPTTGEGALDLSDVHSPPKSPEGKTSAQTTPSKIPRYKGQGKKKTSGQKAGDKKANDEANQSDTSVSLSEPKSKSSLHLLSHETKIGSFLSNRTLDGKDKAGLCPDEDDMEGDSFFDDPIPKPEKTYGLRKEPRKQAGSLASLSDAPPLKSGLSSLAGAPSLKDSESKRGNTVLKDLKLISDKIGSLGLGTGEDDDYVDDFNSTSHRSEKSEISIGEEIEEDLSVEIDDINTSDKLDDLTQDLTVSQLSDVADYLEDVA
Description: pull-down; in vitro binding assay by the original protocol: HA-tagged and MYC-tagged proteins translated in separate reactions, not co-translated; captured by HA-agarose beads.

For test [4], the target named is N-terminally HA-tagged CEP15 (human) (UniProt Q9HBI5). The test is described as above.
Test [5] concerns the target T1, N-terminally HA-tagged FGFR1OP. Description: pull-down; in vitro binding assay: HA-tagged and MYC-tagged proteins co-translated in reticulocyte lysate, captured by HA-agarose beads; 25 mM HEPES-NaOH pH 7.5, 500 mM NaCl, 1 mM CaCl2, 0.1% Triton X-100; 2 hr at 4°C; immunoblot.
Test [6] addresses N-terminally HA-tagged CEP15 (human) (UniProt Q9HBI5). The description is as above.

“N-terminally MYC-tagged CEP15 (from UniProt Q9HBI5 1-128)”: the binding entry in test [1] and in test [2] was “binds” throughout.

B1: N-terminally MYC-tagged CEP350 fragment (2470–2836 a.a.) (domain or fragment, UniProt Q5VT06 2470-2836)
chain: RSDVEHEQQVTESPSLASVPTADELFDFHIGDRVLIGNVQPGILRFKGETSFAKGFWAGVELDKPEGNNNGTYDGIAYFECKEKHGIFAPPQKISHIPENFDDYVDINEDEDCYSDERYQCYNQEQNDTEGPKDREKDVSEYFYEKSLPSVNDIEASVNRSRSLKIETDNVQDISGVLEAHVHQQSSVDSQISSKENKDLISDATEKVSIAAEDDTLDNTFSEELEKQQQFTEEEDNLYAEASEKLCTPLLDLLTREKNQLEAQLKSSLNEEKKSKQQLEKISLLTDSLLKVFVKDTVNQLQQIKKTRDEKIQLSNQELLGDDQKKVTPQDLSQNVEEQSPSISGCFLSSELEDEKEEISSPDMCPR
Regarding B1, the binding result in test [3] is recorded as “binds”; in test [1], “no binding”; in test [4], “no binding”; in test [5], “binds”; in test [2], “no binding”; in test [6], “no binding”.

The values above are taken from article PMC11984960.
